The campaign covered roughly 43,000 compounds. About 830 (1.9%) were called active. Inconclusive results, whose numbers are uncertain, are shown with a selection of clear calls. The calls were made as follows: active = clear falling dose curves in both reporters; inconclusive = both reporters move, but less clearly or upward; inactive = either reporter flat; the % is the NLuc reporter signal. Potencies of inconclusive entries are left out as doubtful fits.
test: Cell-based coincidence reporter assay to measure PMP22 gene transcription in S16 Pmp22-F2sN cells - Primary screen; conditions: S16 Pmp22-F2sN Schwann cells (luciferase reporters placed in the Pmp22 gene), FLuc/NLuc coincidence luminescence, 24 h; measured here: NLuc reporter readout, at 57.5 µM (top of the series)
How it was run: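 S16 Schwann cells carrying FLuc/NLuc coincidence reporter in the Pmp22 3' UTR treated with compound 24 h at 37C; FLuc then NLuc luminescence read sequentially by dual-luciferase reagents.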
Potency is read from the fitted curve at half-maximal effect; tags tell the direction and shape of the fitted curve.

| Structure (SMILES) | Potency |
| --- | --- |
| COc1ccc(NS(=O)(=O)c2cc(-c3onc(C)c3C)ccc2C)c(OC)c1 | inconclusive [phenotype inactive, partial curve, poor fit] |
| Cc1ccc(CNC(=O)CN2Cc3ccccc3C2=O)cc1 | inactive |
| Cc1cccc(NC(=O)c2cccc(N3CCCS3(=O)=O)c2)c1 | inconclusive [phenotype inactive, single point] |
| CCOc1ccc2nc(NC(=O)c3nc(SC(C)C)ncc3Cl)sc2c1 | active: 17.8 µM |
| Cc1cccc(C)c1NC(=O)CSc1nc(-c2cccs2)cc(C(F)(F)F)n1 | inactive |
| Cc1ccc(Nc2ccc(N3CCN(C(=O)c4ccc([N+](=O)[O-])cc4Cl)CC3)nn2)cc1 | inconclusive [phenotype inactive, single point] |
| CCOc1ccc(C2c3c(-c4ccc(C)cc4)n[nH]c3C(=O)N2c2ccc(Cl)cc2)cc1 (centres undefined) | inconclusive [phenotype inactive, single point] |
| O=C(CC1N=C2c3ccccc3N=C(SCc3ccc(Cl)cc3)N2C1=O)NCCc1ccccc1 (centres undefined) | inconclusive [phenotype inactive, single point] |
| CCN1CCC(N(Cc2cccc(OC)c2)C(=O)Nc2cccc(C(F)(F)F)c2)CC1 | inconclusive [phenotype inactive, single point] |
| COc1cc(C)c(Cl)cc1S(=O)(=O)NCCc1c(C)[nH]c2ccccc12 | inactive |
| CCOc1ccc(NC(=O)Cn2c(=O)n(-c3ccc(C)cc3)c(=O)c3cc(OC)c(OC)cc32)cc1 | inconclusive [phenotype inactive, single point] |
| COc1cc(NC(=O)C(CC(C)C)NS(=O)(=O)c2ccc3c(c2)CCCC(=O)N3)cc(OC)c1 (centres undefined) | inconclusive [phenotype inactive, single point] |
| CCOC(=O)Cn1c(=O)n(CC2CCCO2)c2nc(-c3ccc(OC)cc3OC)nc(C(N)=O)c21 (centres undefined) | inactive |
| COCCCNC(=O)c1ccc2c(c1)N=C(C)c1c(C)ccc(C)c1S2 | active: 0.089 µM |
| O=C(CCC(=O)N1CC2CCCN2c2ccccc21)NCc1ccccc1Cl (centres undefined) | inconclusive [phenotype inactive, single point] |
| COc1ccccc1CNC(=O)CCn1c(=O)c2ccccc2n(CC(=O)Nc2ccc(C)cc2)c1=O | inconclusive [phenotype inactive, single point] |
| COc1cc(CN(C(=O)COc2ccc(Br)cc2)c2ccccn2)cc(OC)c1OC | inconclusive [phenotype inactive, single point] |
| O=C(CSc1ncc(CO)n1Cc1ccccc1)Nc1nc2ccccc2s1 | inconclusive [phenotype inactive, single point] |
| Cn1c(=O)c2cc(C(=O)NCCCN3CCN(c4ccc(F)cc4)CC3)sc2c2ccccc21 | active: 18.9 µM |
| COc1ccc(Cn2c(SCc3ccc(C(=O)NC4CCCCC4)cc3)nc3ccncc32)cc1 | inconclusive [phenotype inactive, partial curve, poor fit] |

| Structure (SMILES) | Potency |
| --- | --- |
| Cc1ccc(C)c(N2CCN(S(=O)(=O)c3ccc4[nH]c5c(c4c3)CCCC5)CC2)c1 | inconclusive [phenotype inactive, single point] |
| CCOC(=O)c1sc2ccccc2c1S(=O)(=O)Nc1cc(OC)ccc1OC | inconclusive [phenotype inactive, single point] |
| CCc1ccc(C(c2ccccc2)c2c(C)[nH]c3ccccc23)s1 (centres undefined) | inconclusive [phenotype inactive, single point] |
| O=C(Nc1ccc(-c2nc3cc(Cl)ccc3o2)cc1)c1cc(Br)ccc1Cl | inconclusive [phenotype inactive, single point] |
| CCc1cccc(NC(=O)c2cnc(N3CCOCC3)c3ccccc23)c1 | inconclusive [phenotype inactive, single point] |
| COc1ccc(N2CC(C(=O)NCCS(=O)(=O)N3CCN(c4ccccc4)CC3)CC2=O)cc1 (centres undefined) | inactive |
| CCC1CCCCN1CCCNC(=O)c1cn(C)c2ccc(S(=O)(=O)N(C)C3CCCCC3)cc2c1=O (centres undefined) | inconclusive [phenotype inactive, single point] |
| CCc1ccc(-c2nn(-c3ccc(OC)cc3)c3c2cnc2ccc(OC)cc23)cc1 | inconclusive [phenotype inactive, single point] |
| CCN(CC)C(=O)c1c(NC(=O)c2ccccc2F)sc2c1CCC(C(C)(C)C)C2 (centres undefined) | inconclusive [phenotype inactive, single point] |
| Cc1cc2oc(C(=O)N(Cc3ccc(Cl)cc3)Cc3ccco3)c(C)c2cc1Cl | inactive |
| COc1ccccc1C(=O)Nc1cccc(OCc2cc(=O)n3ccccc3n2)c1 | inconclusive [phenotype inactive, single point] |
| Cc1ccc(Cl)c2sc(NC(=O)c3ccc(S(=O)(=O)N4CCCC4)cc3)nc12 | inconclusive [phenotype inactive, single point] |
| O=C(NCc1c(-n2cccc2)sc2c1CCCC2)Nc1cccc(C(F)(F)F)c1 | inconclusive [phenotype inactive, single point] |
| Cc1cc(Nc2ccccc2C)c2cccc(C)c2n1 | inconclusive [phenotype inactive, single point] |
| CCc1ccc(S(=O)(=O)c2nnn3c2nc(N(C)Cc2ccccc2)c2cc(Cl)ccc23)cc1 | inactive |
| CCS(=O)(=O)N1CCCc2cc(C(=O)Nc3cc([N+](=O)[O-])ccc3C)ccc21 | inconclusive [phenotype inactive, single point] |
| Cc1ccc(NC(=O)CN2C(=O)C(c3ccccc3)=NC23CCCCC3)cc1C | inconclusive [phenotype inactive, single point] |
| CSc1cccc(-n2nnc(-c3nsc(NC(=O)c4cccs4)n3)c2C)c1 | inactive |
| CCS(=O)(=O)c1ncc(Cl)c(C(=O)Nc2ccc(S(=O)(=O)N(C)c3ccccc3)cc2)n1 | active: 1 µM |
| Cc1ccc(C)c(NC(=O)Nc2cc3c(cc2N2CCCCC2)n(C)c(=O)n3C)c1 | inconclusive [phenotype inactive, partial curve, poor fit] |

| Structure (SMILES) | Potency |
| --- | --- |
| CCN(CC)c1ccc(NC(=O)c2cnn(-c3ccccc3)c2-n2cccc2)c(C)c1 | inconclusive [phenotype inactive, single point] |
| Cc1cccc2sc(N(CCN(C)C)C(=O)c3ccc4c(c3)OCCO4)nc12 | inconclusive [phenotype inactive, partial curve, poor fit] |
| Cc1ccc(S(=O)(=O)N(CC(=O)Nc2ccc(Cl)cc2Cl)c2ccccc2C)cc1 | inconclusive [phenotype inactive, single point] |
| Cc1ccc(Cn2ccnc2SCC(=O)NCc2ccccc2Cl)cc1 | inconclusive [phenotype inactive, single point] |
| COc1ccc(Cl)cc1S(=O)(=O)NCc1ccc2c(c1)CCN2C(=O)c1cccc(C)c1 | active: 10.6 µM |
| Cc1cccc(-c2nc(C)c(CCNC(=O)C(=O)Nc3ccccc3C#N)s2)c1 | inconclusive [phenotype inactive, single point] |
| COc1cc(-c2noc(-c3ccc(NCC4CCCO4)c([N+](=O)[O-])c3)n2)cc(OC)c1OC (centres undefined) | inconclusive [phenotype inactive, partial curve] |
| Cc1nn(CC(=O)NC2CCC(C)CC2)c(=O)c2c1sc1ccccc12 (centres undefined) | inconclusive [phenotype inactive, partial curve, poor fit] |
| CC(C)(C)c1ccc(C(=O)NCC(c2cccnc2)N2CCc3ccccc3C2)cc1 (centres undefined) | inconclusive [phenotype inactive, single point] |
| CCc1ccc(CSc2nc(-c3ccccc3F)nc3c2Cc2c(CO)cnc(C)c2O3)cc1 | inconclusive [phenotype inactive, partial curve] |
| CCN(C(=O)C1CCN(S(=O)(=O)c2cc(Br)cc3c2N(C(C)=O)CC3)CC1)c1cccc(C)c1 | active: 8.91 µM |
| CCc1nn(CC(=O)N2CCN(c3ccc(OC)cc3)CC2)c(=O)c2cc3sccc3n12 | inconclusive [phenotype inactive, single point] |
| COc1ccc2c(c1)Cc1sc(NC(=O)c3cccc(Br)c3)nc1-2 | inactive |
| CC1CCC(C(=O)NC(C(=O)OCC(=O)c2ccc(Br)cc2)C(C)C)CC1 (centres undefined) | inconclusive [phenotype inactive, partial curve, poor fit] |
| COc1ccc(OC)c(-n2nnc(-c3nc(-c4cc(OC)c(OC)c(OC)c4)no3)c2C)c1 | inactive |
| Cc1ccc(CNC(=O)c2ccc(Cn3c(=O)c4ccccc4n(CC(=O)Nc4c(C)cc(C)cc4C)c3=O)cc2)cc1 | active: 16 µM |
| COc1ccc(NS(=O)(=O)c2cc3c(cc2C)N(C(C)=O)CCO3)cc1 | inactive |
| CCc1ccccc1NC(=O)CN1C(=O)c2ccccc2Sc2ncccc21 | inactive |
| Cc1cc(-c2ccc(C)c(S(=O)(=O)NCC3CCN(Cc4ccc(F)cc4)CC3)c2)on1 | inconclusive [phenotype inactive, partial curve] |

From PubChem BioAssay AID1508649 (National Center for Advancing Translational Sciences (NCATS), 2021)
